{"source": "patent US20250311689A1", "about": "“SEEDLING GERMINATION AND GROWTH CONDITIONS” (PIONEER HI-BRED INTERNATIONAL, INC., priority 2022, published 2025)", "key": {"[1]": {"system": "Pioneer inbred PHH5E seedlings / leaf segments", "assay": "Auxin (2,4-D) seedling pre-treatment, leaf transformation (Table 33)", "assay_type": "in vivo, maize", "details": "for No. T0 Plants / T-DNA Delivery: 24 hours, 60 seedlings; for Txn % (Transformation Frequency): (No. T0 plants/No. Seedlings) × 100; for No. SC Clean: single-copy T-DNA integration with no extraneous Agrobacterium sequences"}, "[2]": {"system": "Pioneer inbred PHH5E seedlings / leaf segments", "assay": "Seedling pre-treatment with ancymidol, Agrobacterium-mediated random leaf transformation (Table 21)", "assay_type": "in vivo, maize", "design": "key to T-DNA Delivery: 0 = None; 4 = almost all embryos expressing"}, "[3]": {"details": "seedlings on 10 mg/l 2,4-D for 24 hours"}, "[4]": {"details": "2 mg/l ancymidol in germination medium, 14 days, single experiments (Exp. 1-3), 28-33 seedlings, PHP97334"}, "[5]": {"details": "2 mg/l ancymidol, Totals of Exp. 1-3, 93 seedlings"}, "[6]": {"details": "4 mg/l ancymidol in germination medium, 14 days, single experiments (Exp. 1-3), 32-33 seedlings, PHP97334"}, "[7]": {"details": "4 mg/l ancymidol, Totals of Exp. 1-3, 97 seedlings"}}, "note": "Several values for one entry are separate records, joined by “and”; a condition that tells them apart may be missing. Equal entries are not always repeated.", "data": [{"compound": "O=C(O)COc1ccc(Cl)cc1Cl", "note": "[2,4-D, 2,4-dichlorophenoxyacetic acid]", "values": [{"measurement": "SC % (Single-copy Frequency)", "setting": "[1]; 2,4-D 3 mg/l", "value": 30, "unit": "%"}, {"measurement": "No. T0 Plants", "setting": "[1]; 2,4-D 3 mg/l", "value": 45}, {"measurement": "T-DNA Delivery", "setting": "[1]; 2,4-D 3 mg/l", "value": "3 (75%)"}, {"measurement": "Txn % (Transformation Frequency)", "setting": "[1]; 2,4-D 3 mg/l", "value": 75, "unit": "%"}, {"measurement": "No. SC Clean", "setting": "[1]; 2,4-D 3 mg/l", "value": 18}, {"measurement": "SC % (Single-copy Frequency)", "setting": "[1]; 2,4-D 10 mg/l", "value": 67, "unit": "%"}, {"measurement": "No. T0 Plants", "setting": "[1]; 2,4-D 10 mg/l", "value": 72}, {"measurement": "T-DNA Delivery", "setting": "[1]; 2,4-D 10 mg/l", "value": "4 (90-100% of the leaf segments/pieces within a treatment showed ZS-GREEN expression)"}, {"measurement": "Txn % (Transformation Frequency)", "setting": "[1]; 2,4-D 10 mg/l", "value": 120, "unit": "%"}, {"measurement": "No. SC Clean", "setting": "[1]; 2,4-D 10 mg/l", "value": 40}, {"measurement": "SC % (Single-copy Frequency)", "setting": "[1]; 2,4-D 30 mg/l", "value": 32, "unit": "%"}, {"measurement": "No. T0 Plants", "setting": "[1]; 2,4-D 30 mg/l", "value": 28}, {"measurement": "T-DNA Delivery", "setting": "[1]; 2,4-D 30 mg/l", "value": "4 (90-100% of the leaf segments/pieces within a treatment showed ZS-GREEN expression)"}, {"measurement": "Txn % (Transformation Frequency)", "setting": "[1]; 2,4-D 30 mg/l", "value": 47, "unit": "%"}, {"measurement": "No. SC Clean", "setting": "[1]; 2,4-D 30 mg/l", "value": 19}, {"measurement": "frequency of single-copy T-DNA integrations compared to the control treatment", "setting": "[1]; [3]", "value": "increased"}, {"measurement": "transformation frequency (Txn %) compared to the control treatment", "setting": "[1]; [3]", "value": "increased"}]}, {"compound": "COc1ccc(C(O)(c2cncnc2)C2CC2)cc1", "note": "(stereo not drawn) [Ancymidol, ancymidol]", "values": [{"measurement": "No. T0 Plants", "setting": "[2]; [4]", "value": "66 and 118 and 97"}, {"measurement": "SC %", "setting": "[2]; [4]", "value": "41% and 43% and 69%"}, {"measurement": "T-DNA Delivery", "setting": "[2]; [4]", "value": 4}, {"measurement": "Txn % (Transformation Frequency)", "setting": "[2]; [4]", "value": "236% and 358% and 303%"}, {"measurement": "# SC T0s (single copy of the integrated T-DNA)", "setting": "[2]; [5]", "value": 145}, {"measurement": "No. T0 Plants", "setting": "[2]; [5]", "value": 281}, {"measurement": "SC %", "setting": "[2]; [5]", "value": 52, "unit": "%"}, {"measurement": "T-DNA Delivery", "setting": "[2]; [5]", "value": 4}, {"measurement": "Txn % (Transformation Frequency)", "setting": "[2]; [5]", "value": 302, "unit": "%"}, {"measurement": "overall rates of early somatic embryo formation relative to the control treatment", "setting": "[2]; 2 mg/l and 4 mg/l ancymidol", "value": "higher"}, {"measurement": "# SC T0s (single copy of the integrated T-DNA)", "setting": "[2]; [6]", "value": "51 and 45"}, {"measurement": "No. T0 Plants", "setting": "[2]; [6]", "value": "75 and 83 and 81"}, {"measurement": "SC %", "setting": "[2]; [6]", "value": "68% and 54% and 63%"}, {"measurement": "T-DNA Delivery", "setting": "[2]; [6]", "value": 4}, {"measurement": "Txn % (Transformation Frequency)", "setting": "[2]; [6]", "value": "234% and 252% and 253%"}, {"measurement": "# SC T0s (single copy of the integrated T-DNA)", "setting": "[2]; [7]", "value": 147}, {"measurement": "No. T0 Plants", "setting": "[2]; [7]", "value": 239}, {"measurement": "SC %", "setting": "[2]; [7]", "value": 62, "unit": "%"}, {"measurement": "T-DNA Delivery", "setting": "[2]; [7]", "value": 4}, {"measurement": "Txn % (Transformation Frequency)", "setting": "[2]; [7]", "value": 246, "unit": "%"}, {"measurement": "average T0 Txn % higher than the control treatment", "setting": "[2]; seedlings grown on 2 mg/l ancymidol", "value": 3, "unit": "fold"}, {"measurement": "average T0 Txn % higher than the control treatment", "setting": "[2]; seedlings grown on 4 mg/l ancymidol", "value": 2.5, "unit": "fold"}]}]}
